# Data taken from the supplement of paper PMC8728848.
# This is one part of the list.
# What was measured:
# Assay in all cases: glycan array binding signal (z-score within array); higher = stronger binding
# Conditions in all cases: glycan notation: IUPAC condensed, linker removed; mutation: E227G
# Gal(a1-3)Gal(b1-4)GlcNAc = target: Gal(a1-3)Gal(b1-4)GlcNAc
# Procedure, shortened: (§1)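 The Consortium for Functional Glycomics database supplied 3228 glycan arrays, of which those lacking an available protein sequence were dropped. The binding signal, a within-array Z-score, was averaged across arrays of the same protein sequence and across linkers. Negative scores can be read as non-binding.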
# [1] = target: Gal(a1-3)Gal(b1-4)GlcNAc(b1-2)Man
# Procedure, shortened: as §1
# [2] = target: Gal(a1-3)Gal(b1-4)GlcNAc(b1-2)Man(a1-3)[Gal(a1-3)Gal(b1-4)GlcNAc(b1-2)Man(a1-6)]Man(b1-4)GlcNAc(b1-4)GlcNAc
# Procedure, shortened: as §1
# [3] = target: Gal(a1-3)Gal(b1-4)GlcNAc(b1-3)GalNAc
# Procedure, shortened: as §1
# [4] = target: Gal(a1-3)Gal(b1-4)GlcNAc(b1-6)GalNAc
# Procedure, shortened: as §1
# [5] = target: Gal(a1-3)Gal(b1-4)[Fuc(a1-3)]GlcNAc
# Procedure, shortened: as §1
# [6] = target: Gal(a1-3)Gal(b1-4)[Fuc(a1-3)]GlcNAc(b1-2)Man(a1-3)[Gal(a1-3)Gal(b1-4)[Fuc(a1-3)]GlcNAc(b1-2)Man(a1-6)]Man(b1-4)GlcNAc(b1-4)GlcNAc
# Procedure, shortened: as §1
# Gal(a1-3)GalNAc = target: Gal(a1-3)GalNAc
# Procedure, shortened: as §1
# [7] = target: Gal(a1-3)[Gal(a1-4)]Gal(b1-4)GlcNAc
# Procedure, shortened: as §1
# [8] = target: Gal(a1-4)Gal(b1-3)GlcNAc(b1-2)Man(a1-3)[Gal(a1-4)Gal(b1-3)GlcNAc(b1-2)Man(a1-6)]Man(b1-4)GlcNAc(b1-4)GlcNAc
# Procedure, shortened: as §1
# Gal(a1-4)Gal(b1-4)Glc = target: Gal(a1-4)Gal(b1-4)Glc
# Procedure, shortened: as §1
# Gal(a1-4)Gal(b1-4)GlcNAc = target: Gal(a1-4)Gal(b1-4)GlcNAc
# Procedure, shortened: as §1
# [9] = target: Gal(a1-4)Gal(b1-4)GlcNAc(b1-2)Man(a1-3)[Gal(a1-4)Gal(b1-4)GlcNAc(b1-2)Man(a1-6)]Man(b1-4)GlcNAc(b1-4)GlcNAc
# Procedure, shortened: as §1
# [10] = target: Gal(a1-4)Gal(b1-4)GlcNAc(b1-3)Gal(b1-4)Glc
# Procedure, shortened: as §1
# Gal(a1-4)GlcNAc = target: Gal(a1-4)GlcNAc
# Procedure, shortened: as §1
# Gal(a1-6)Glc = target: Gal(a1-6)Glc
# Procedure, shortened: as §1
# Gal(b1-2)Gal = target: Gal(b1-2)Gal
# Procedure, shortened: as §1
# Gal(b1-3)Gal = target: Gal(b1-3)Gal
# Procedure, shortened: as §1
# Gal(b1-3)Gal(b1-4)GlcNAc = target: Gal(b1-3)Gal(b1-4)GlcNAc
# Procedure, shortened: as §1
# Gal(b1-3)GalNAc = target: Gal(b1-3)GalNAc
# Procedure, shortened: as §1
# [11] = target: Gal(b1-3)GalNAc(a1-3)[Fuc(a1-2)]Gal(b1-4)Glc
# Procedure, shortened: as §1
# [12] = target: Gal(b1-3)GalNAc(a1-3)[Fuc(a1-2)]Gal(b1-4)GlcNAc
# Procedure, shortened: as §1
# Gal(b1-3)GalNAc(b1-3)Gal = target: Gal(b1-3)GalNAc(b1-3)Gal
# Procedure, shortened: as §1
# [13] = target: Gal(b1-3)GalNAc(b1-3)Gal(a1-4)Gal(b1-4)Glc
# Procedure, shortened: as §1
# [14] = target: Gal(b1-3)GalNAc(b1-4)Gal(b1-4)Glc
# Procedure, shortened: as §1
# [15] = target: Gal(b1-3)GalNAc(b1-4)[Neu5Ac(a2-3)]Gal(b1-4)Glc
# Procedure, shortened: as §1
# Gal(b1-3)GlcNAc = target: Gal(b1-3)GlcNAc
# Procedure, shortened: as §1
# [16] = target: Gal(b1-3)GlcNAc(a1-3)Gal(b1-4)GlcNAc
# Procedure, shortened: as §1
# [17] = target: Gal(b1-3)GlcNAc(a1-6)Gal(b1-4)GlcNAc
# Procedure, shortened: as §1
# Gal(b1-3)GlcNAc(b1-2)Man = target: Gal(b1-3)GlcNAc(b1-2)Man
# Procedure, shortened: as §1
binder,measurement,setting,value
"Epa1-NP-mutant-E227G (Candida glabrata), Q6VBJ0 (protein) MILNPALFLNKCVCIYTTLILLLLTNGGYATSSNDISLASKDPTTFPLGCSPDITTPKKGLSMELYSYDFRKKGSYPCWDAAYLDPNYPRTGYKSHRLLAKVDGVTGNINFYYHATKGCTPQLGHLPASYNYPKPLTMTNFTMLLYGYFRPKVTGFHTFTISADDLLFVNFGAGNAFDCCRRDSSADHFGNYQAYAIWGSKTAKDELTVHLDAGVYYPIRLFYNNRGYDGALSFTFKTESNENTVSDFSEYFFSLDDTEEGCPGLISYDSSCASVKTSKIIGIDYHTETPNENLVPITKTIYHLGIPCTGTTTTPLCGSGFYDPLANKCVTINTSSTSSVTKTTSHTTSKEVSFHSSISSQKTLIPKSIPSPYGPIKSQSIPTEMETSSEISSSEYAFSDVISTPSHSPYTKKHSSLNSSSYTSTVIHSLTSYSISQGIFSTSLSEQNITSKSSTDKFSTATSMSNNITQSSIIISQFSTNNENYTTTSMHTSSDKISTETLNNSISTTTSILFSNSSTILKNNTTIISSDKDTHYHPVNPTIVCSTNKTEIICASITQPSISNSNNHWSSSVLKFNSTTVRSTLPSSAGSNETSINVPFSSSTESNTSTSSTSTSNSKMVRSTLPSSAGSNETSISVPFSSSTESNTSTSSTSTSNSKMVRSTLPSSAGSNETSINVPFSSSTESNTSTSSTSTSNSKTVRSTPFSSAGIIMTSLSQRNNKSASSYASSNSKCYNTADSCRKVHSTPSYLLTSSYTSEGVDYDCSLVSTKLKINDTNCVNNKHTTKSCLKTSVTTTIPTLEIKTARKSSSNTIGLHSYPTSSPNKSISSAPIIGYISSFKTIKTASPSYQTSDLTTITTITSLNNPGSTAVENTHESNDKSRKTSSNDISSKHSVIKETKDAVESSNKSHQTNTLKCSSIIIASSSHNSYESLGGTTLTLTLSKVYSPQNNDTLPFLEISEVNPSRTVLPESSKMMQYLTSTEERNKTARNTIATNIVSISTFHFEGEGNAIRMGYTQLLLMLIGIIVMNIGT",glycan array binding signal (z-score),Gal(a1-3)Gal(b1-4)GlcNAc,-0.275
same,glycan array binding signal (z-score),[1],-0.269
same,glycan array binding signal (z-score),[2],-0.18
same,glycan array binding signal (z-score),[3],-0.128
same,glycan array binding signal (z-score),[4],-0.268
same,glycan array binding signal (z-score),[5],-0.329
same,glycan array binding signal (z-score),[6],-0.099
same,glycan array binding signal (z-score),Gal(a1-3)GalNAc,-0.194
same,glycan array binding signal (z-score),[7],0.011
same,glycan array binding signal (z-score),[8],-0.089
same,glycan array binding signal (z-score),Gal(a1-4)Gal(b1-4)Glc,-0.132
same,glycan array binding signal (z-score),Gal(a1-4)Gal(b1-4)GlcNAc,-0.143
same,glycan array binding signal (z-score),[9],-0.093
same,glycan array binding signal (z-score),[10],-0.225
same,glycan array binding signal (z-score),Gal(a1-4)GlcNAc,-0.029
same,glycan array binding signal (z-score),Gal(a1-6)Glc,-0.19
same,glycan array binding signal (z-score),Gal(b1-2)Gal,-0.17
same,glycan array binding signal (z-score),Gal(b1-3)Gal,1.03
same,glycan array binding signal (z-score),Gal(b1-3)Gal(b1-4)GlcNAc,1.84
same,glycan array binding signal (z-score),Gal(b1-3)GalNAc,1.39
same,glycan array binding signal (z-score),[11],0.235
same,glycan array binding signal (z-score),[12],0.409
same,glycan array binding signal (z-score),Gal(b1-3)GalNAc(b1-3)Gal,0.43
same,glycan array binding signal (z-score),[13],0.093
same,glycan array binding signal (z-score),[14],4.13
same,glycan array binding signal (z-score),[15],0.479
same,glycan array binding signal (z-score),Gal(b1-3)GlcNAc,0.47
same,glycan array binding signal (z-score),[16],-0.276
same,glycan array binding signal (z-score),[17],-0.062
same,glycan array binding signal (z-score),Gal(b1-3)GlcNAc(b1-2)Man,0.187
